Measured values reported in PubChem BioAssay (NCI).
Values joined by “and” are separate entries in the source; they are usually repeats but may differ in a detail not shown here. Equal entries are not always repeated.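 Test compounds were applied to cells in 96-well plates for 48 hours at 5 doses. GI50 is the concentration that inhibits growth by half. Definition used: TGI = concentration required for complete inhibition of growth.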

Each compound was assayed on NCI-H322M lung (assay: DTP human tumour cell line panel, 48 h).

Compound	TGI	GI50
CC[C@@]1(O)C(=O)OCc2c1cc1n(c2=O)Cc2c-1nc1ccccc1c2/C=N\NC(=O)C(N)CS (some centres undefined)	> 100 µM	
CN(C)CCCNC(=O)c1cc(NC(=O)c2cc(NC(=O)c3cc(NC(=O)CCCn4ccc(CO)c4CO)cn3C)cn2C)cn1C	> 100 µM	
Cc1ccc(S(=O)(=O)n2cc(-c3cnc(N)c(Br)n3)c3ccccc32)cc1	> 100 µM	
Oc1c(I)cc(I)cc1CNCCCN(Cc1ccccn1)Cc1ccccn1	1.86 µM	0.881 µM
Cc1cc(C)cc(Nc2nccc(-c3c(-c4ccc(F)cc4)ncn3C3CCNCC3)n2)c1	3.67 µM	1.28 µM
C[C@H](CC[C@@H](O)C(C)(C)O)[C@H]1CC[C@@]2(C)[C@@H]3CC=C4[C@@H](CC[C@H](OC5OC(CO)C(O)C(O)C5O)C4(C)C)[C@]3(C)C(=O)C[C@]12C (some centres undefined)	> 100 µM	
COc1ccc(N2C(=O)C3c4[nH]c5ccccc5c4C4CCC(C(C)C)CC4C3C2=O)cc1 (centres undefined)	> 100 µM	
Cn1c2ccccc2c2cc(-c3ccccc3)c3c(c21)C(=O)C=CC3=O	53.9 µM	
Cc1cccc2c(N)c3cccc(C(=O)NCC[N+](C)(C)Cc4sc(N5CCOCC5)nc4[N+](=O)[O-])c3nc12	29.3 µM	
COC(=O)C1CC2(c3ccc(C)cc3)C(c3ccc(C)cc3)=C(c3ccc(C)cc3)C1(c1ccc(C)cc1)S2=O (centres undefined)	> 100 µM	> 100 µM
N/C(=N\OC(=O)NC(Cl)=C(Cl)Cl)c1cc(C(F)(F)F)cc(C(F)(F)F)c1	25.5 µM	
N=C(N)n1[nH]c2c(c1=O)CCC2	> 100 µM	
c1ccc(-c2n(Cc3ccc4ccccc4n3)c3ccccc3[n+]2Cc2ccc3ccccc3n2)cc1	3.05 µM	0.496 µM
Cn1cc(-c2csc(-c3cn(CCN4CCOCC4)c4ccc(F)cc34)n2)c2cccnc21	15.4 µM	3.16 µM
O=S(=O)(NC(=S)Nc1ccccc1)c1ccc(N2N=C3c4ccccc4CC3C2c2ccc(Cl)cc2)cc1 (centres undefined)	50.7 µM	16.3 µM
N=C1N=C(N)c2cc3c(cc21)SCCSCCCSCCS3	> 67.9 µM	
NC1=CC(=O)C(=O)c2cccnc21	22.8 µM	10.9 µM
CCC[CH2][Sn]1([CH2]CCC)[O]C(=O)C[S]1	15.7 µM	4.57 µM
CC1=C[C@H]2c3c(c(O)c(O)c4oc5cc(O)cc(O)c5c(=O)c34)[C@H](c3cc(O)c(O)c4oc5cc(O)cc(O)c5c(=O)c34)[C@H]2C(C)(C)C1	5.16 µM and 9.87 µM	1.92 µM and 2.28 µM
Cc1ccccc1NC(=S)N=Nc1c(O)[nH]c2ccccc12	> 100 µM	
CCC(=N\NC(N)=S)/C(C)=N/O	> 100 µM	
COC(=O)[C@]12CC[C@@H](C)[C@H](C)[C@@H]1C1=CC[C@@H]3[C@@]4(C)C(c5ncon5)=C[C@@](C)(CO)C4=CC[C@@]3(C)[C@]1(C)CC2	14.8 µM	3.88 µM

Compound	TGI	GI50
CCOC(OCC)C(CCc1ccccc1)c1c(N)nc(N)[nH]c1=O (centres undefined)	> 100 µM	
CC1(C)Oc2ccc(Cl)cc2C12CC2	55.1 µM	
NCCCn1c2c(c3ccc([N+](=O)[O-])cc3c1=O)C(=O)c1cc3c(cc1-2)OCO3	2.73 µM	0.237 µM
Cc1nnc(N)nc1/C=C\c1cccs1	59.5 µM	
O=C1c2c(c3c4ccccc4n4c3c3c2c2ccccc2n3C/C=C\C4)C(=O)N1Cc1ccccc1	> 100 µM	
COc1ccc(/C=C/c2nc(N3CCOCC3)c3cc(F)c(F)cc3n2)cc1OC	> 100 µM	60.1 µM
Cc1nc2ccccc2c(=O)n1NC(=O)Cc1ccccc1	> 100 µM	
COC1=NN2C(OC)(c3ccccc3)c3c(-c4ccccc4)sc(-c4ccccc4)c3C2(c2ccccc2)S1 (centres undefined)	> 100 µM	
COc1cc(C2[C@H]3C(=O)N(c4ccc(Cc5ccc(N6C(=O)[C@@H]7ON(c8ccccc8)C(c8cc(OC)c(OC)c(OC)c8)[C@@H]7C6=O)cc5)cc4)C(=O)[C@H]3ON2c2ccccc2)cc(OC)c1OC (some centres undefined)	> 100 µM	
CC1=C(C(=O)Nc2ccccc2C)C(c2ccc(N(C)C)cc2)C(C(=O)Nc2ccccc2C)=C(C)N1	> 100 µM	
CCCCCC(/C=C/[C@@H]1CC(=O)C[C@H]1O[Si](C)(C)C(C)(C)C)OCOCCOC (some centres undefined)	32.6 µM	
CSc1nc(Cl)c(Br)c(Nc2c[nH]c(=O)[nH]c2=O)n1	33.4 µM	
COc1cc(C(=O)/C=C/c2c(-c3ccc(F)cc3)nc3sccn23)cc(OC)c1OC	21.7 µM	2.37 µM
c1ccc(Cn2cc3c(c2)-c2oncc2CC3)cc1	> 100 µM	3.06 µM
CC1NOC(NS(=O)(=O)c2ccc(N=Nc3c(O)c(C(=O)O)cc4ccccc34)cc2)C1C (centres undefined)	> 100 µM	
C/C1=C\CC[C@@](C)(O)[C@H]2C[C@H](CC/C(C)=C/CC1)C1(CC1)C(=O)O2	> 100 µM	75.6 µM
CC(=O)c1ccc(NC(=O)/C(=N\NC(N)=O)C(C#N)CC(C)(C)C=O)cc1 (centres undefined)	> 100 µM	
Cc1ccc(C(=O)Nc2ccc(CN3CCN(C)CC3)c(C(F)(F)F)c2)cc1C#Cc1cncc2ncccc12	9.95 µM	0.465 µM
CCOC(=O)Nc1nc2c(F)c(F)c(F)cc2s1	> 100 µM	> 100 µM
Cc1ccnc(NC(=S)Nc2ccccc2Cl)c1	> 100 µM	
CC1OC(OC2C(OC3C[C@@]4(C)C(C[C@H](O)[C@H]5[C@H](C6(C)CCC(C(C)(C)O)O6)CCC54C)[C@]4(C)CC[C@@H](O)C(C)(C)C34)OC(CO)C(O)C2O)C(O)C(O)C1O (some centres undefined) (tested in a mixture with another compound)	> 100 µM	
COC(=O)C1=C(OC(=O)/C(=C/c2ccc(Cl)cc2)c2ccccc2)C(C(=O)OC)[C@@]2(O)[C@@H](C(=O)OC)[C@H](C)C[C@@H]1[C@@H]2C(=O)OC (some centres undefined)	> 100 µM	

Compound	TGI	GI50
BrP(NC1CCCCCC1)(c1ccccc1)(c1ccccc1)c1ccccc1	34.4 µM	
COc1cc2ccc(CC#N)cc2cc1OC	> 100 µM	
O=C(N/C(=C\c1ccc([N+](=O)[O-])cc1)c1nc2[nH]c(=S)[nH]c(=O)c2[nH]1)c1ccccc1	> 100 µM	
C[C@@H]1CN(Cc2ccc(/C=C/c3n[nH]c4ccc5nc(-c6cn[nH]c6C(F)(F)F)c6c(c5c34)CCCC6)cc2)C[C@H](C)O1	19.4 µM	6.26 µM
COc1cc2c(cc1OCCCCCCNC(=O)c1cc3ccccc3[nH]1)N=CC1CCCN1C2=O (centres undefined)	> 100 µM	25.3 µM
CC(C)[C@@H](C(=O)O[C@@H]1/C=C/C(=O)O[C@@H](C)CCC/C=C/[C@@H]2C[C@H](O)C[C@H]21)[N+](C)(C)C	> 100 µM	> 100 µM
COC(=O)C[C@H](COCc1ccccc1)NC(=O)C[C@H](COCc1ccccc1)NC(=O)C[C@H](COCc1ccccc1)NC(=O)OC(C)(C)C	> 100 µM	
FC1CCN(C2(c3cccs3)CCCCC2)CC1	> 100 µM	
c1ccc(C(CCN2CCCC2)c2ccccn2)cc1 (centres undefined)	> 100 µM	
O=c1c2c([nH]c3cc4c(cc13)OCO4)-c1ccccc1CCC2	> 50 µM	
COc1cc2c3c(cc(Cl)nc3c1OC)C(O)(CC(C)=O)C(=O)N2 (centres undefined)	> 100 µM	
CCN(CC)c1ccc(/C=C/C(=O)c2cccc(NS(C)(=O)=O)c2)cc1	> 100 µM	> 100 µM
COc1cc(/C=C/C(=O)c2c(C)n([O-])c3cc(C)c(C)cc3[n+]2=O)cc(OC)c1OC	37.6 µM	17.1 µM
CCOC(=O)N(CC)c1c(C(F)(F)F)cc(-c2ccccc2)[nH]c1=O	> 100 µM	
CCOC(=O)c1c(-c2[nH]c(C(=O)OCc3ccccc3)c(C)c2C(=O)OCC)[nH]c(C(=O)OCc2ccccc2)c1C	> 100 µM	
CC(C)C(/C=C/c1ccccc1)=N\NC(=O)N/N=C(/C=C/c1ccccc1)C(C)C	> 100 µM	
Cc1cc2nc3n(c2cc1C)C(c1c(F)cccc1F)SC3 (centres undefined)	57.4 µM	
COc1cc2c(c3oc(-c4ccc5c(c4)OCO5)c(O)c(=O)c13)CCC(C)(C)O2	> 100 µM	
O=C1C2C(C(=O)[N]1[Hg][c]1ccccc1)C1(Cl)C(Cl)=C(Cl)C2(Cl)C1(Cl)Cl (centres undefined)	25.9 µM	11.1 µM
COc1ccc(C(=O)Nc2ncc(Cc3ccc(F)cc3)s2)cc1	> 100 µM	0.392 µM
O=[N+]([O-])c1cccc2nc3ccccc3c(NCCC[N+]3([O-])CCCCC3)c12	4.12 µM	
CCN(CC)C(=O)c1c(N2CCOCC2)cc(N(CC)CC)oc1=O	> 100 µM	

Compound	TGI	GI50
COc1cc(C)c(C(=O)/C=C/c2cc(OC)c(O)c(OC)c2)cc1O	69.9 µM	
O=C(c1ccc(Cl)cc1)N1N=C(c2ccc(Cl)cc2)CC1(O)c1cc(F)c(Cl)cc1Cl (centres undefined)	56.7 µM	
Nc1c(C(=O)Nc2cccc3ccccc23)sc2nc3c(cc12)CCCC3	> 100 µM	> 100 µM
CC12C=CC(C)(O1)C1C2c2ccccc2S1(=O)=O (centres undefined)	> 100 µM	> 100 µM
O=C(c1ccc(O)cc1)c1ccc(C(=O)c2ccc(O)cc2)cc1	> 100 µM	> 100 µM
CC(=O)Nc1ccc(-c2nnc(SCC(=O)Nc3ccccc3[N+](=O)[O-])o2)cc1	> 100 µM	
COc1ccc(CNc2nc3ccccc3nc2-c2cccs2)cc1OC	> 100 µM	
Clc1ccccc1-c1nc2ccccc2[nH]1	> 100 µM	> 100 µM
COc1ccc(S(=O)(=O)O)cc1NS(=O)(=O)c1ccc(C)cc1	> 100 µM	
c1ccc([C@H]2CN3CCSC3=N2)cc1	> 100 µM	
Cc1cn(C2C=CC(=O)C(C)O2)c(=O)[nH]c1=O (centres undefined)	40.5 µM	
CNC1=C(C)C(=O)C(C)=C(C(C)(C)CC(=O)n2cc(F)c(=O)[nH]c2=O)C1=O	> 100 µM	
O=C(O)c1cn(C2CC2)c2cc(N3CCN(S(=O)(=O)c4ccc(Cl)c(Cl)c4)CC3)c(F)cc2c1=O	> 100 µM	3.24 µM
O=C1CCC2=C(CCC2)N1CCc1ccc2c(c1)OCO2	> 100 µM	
O=C1c2ccccc2C2(c3ccc(Cl)cc3)NCc3ccccc3CN12 (centres undefined)	41.8 µM	
O=C(NN=C1CCCCC1)Nc1ccccc1Cl	> 100 µM	
Cc1cc(S(=O)(=O)O)ccc1N=Nc1ccc(N=Nc2c(O)ccc3ccccc23)c(C)c1	> 100 µM	
CCN(CC)C(=S)SNCCc1ccc(S(N)(=O)=O)cc1	> 100 µM	
Cc1cc(-c2ccccc2)c(C)n1Cc1ccc(Cl)cc1	> 100 µM	19.9 µM
CC(C)(C)c1ccc(C(=O)N/N=C/c2ccc(O)cc2O)cc1	12.4 µM	0.323 µM
O=C(NCCO)c1c(O)c2ccccc2[nH]c1=O	> 100 µM	
CC1SC2=NC3=C(c4ccccc4C3=O)C(c3ccc(Br)cc3)N2C1=O (centres undefined)	> 100 µM	
